In PubChem BioAssay AID488969 (Vanderbilt High Throughput Screening Facility, 2010) one finds z-score data, which are given here for 29 compounds.

Over roughly 110,000 compounds, “z-score” has its median near -0.1; the highest 2% begin near 2. Some of the results follow. Active and inactive are the calls of the source.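 Rule for the calls: active = z-score in the third read window above 3 or below -3; inactive = the rest.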

This test has as its target Metabotropic glutamate receptor 8 (Rattus norvegicus) (UniProt P70579). The experiment in a line: rat mGluR8 modulators via GIRK flux, primary screen, cell-based, thallium flux, HTS (AID 488969). The following applies: HEK293 rat mGluR8, GIRK (G protein-gated inwardly rectifying potassium channel) thallium flux, FluoZin2; at 10 µM; stronger effect = higher value; submaximal glutamate (EC20) added with thallium.
Sequence of UniProt P70579 (P70579 whole entry, looked up): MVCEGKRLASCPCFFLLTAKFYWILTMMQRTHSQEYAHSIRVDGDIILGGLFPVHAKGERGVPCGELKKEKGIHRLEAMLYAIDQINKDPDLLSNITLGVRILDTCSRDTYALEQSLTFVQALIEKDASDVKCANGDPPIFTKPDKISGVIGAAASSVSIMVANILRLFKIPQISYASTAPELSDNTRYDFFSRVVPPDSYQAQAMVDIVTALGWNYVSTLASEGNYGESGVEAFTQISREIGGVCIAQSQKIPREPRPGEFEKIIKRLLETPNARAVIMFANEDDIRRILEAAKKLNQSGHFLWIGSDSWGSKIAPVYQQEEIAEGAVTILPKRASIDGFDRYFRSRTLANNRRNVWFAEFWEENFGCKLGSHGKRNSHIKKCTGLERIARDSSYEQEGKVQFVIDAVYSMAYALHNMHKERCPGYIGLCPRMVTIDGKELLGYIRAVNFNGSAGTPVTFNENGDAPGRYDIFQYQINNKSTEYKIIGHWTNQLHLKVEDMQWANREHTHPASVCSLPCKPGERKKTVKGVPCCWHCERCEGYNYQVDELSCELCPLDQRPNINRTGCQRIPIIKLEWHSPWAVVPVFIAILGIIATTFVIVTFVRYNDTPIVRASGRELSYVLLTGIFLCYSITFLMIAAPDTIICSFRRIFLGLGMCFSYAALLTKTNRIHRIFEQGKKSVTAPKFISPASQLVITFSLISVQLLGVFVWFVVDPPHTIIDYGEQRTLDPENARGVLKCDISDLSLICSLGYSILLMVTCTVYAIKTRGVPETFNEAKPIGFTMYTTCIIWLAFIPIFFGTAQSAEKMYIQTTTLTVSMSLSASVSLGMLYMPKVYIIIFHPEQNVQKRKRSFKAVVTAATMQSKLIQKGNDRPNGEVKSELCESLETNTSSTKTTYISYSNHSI
In turn, `COC(=O)C1=C(N)Oc2cc(C)n(CCc3ccccc3)c(=O)c2C1c1cccnc1` (centres undefined) showed a z-score of -0.611.
Compound `Cc1cc(Cl)c(S(=O)(=O)N2CCCCCC2)cc1OCC(=O)NC1CCCCC1` registered a z-score of -0.622.
On to `CCOc1cc(CNc2cccc3ccccc23)cc(Br)c1OCC(=O)NC(C)(C)C`, for which the z-score is -0.15.
Then `CC12CCC(C(=O)N(NC(=O)c3ccc(O)cc3)C1=O)C2(C)C` (centres undefined), with 0.245.
In the case of `Cc1ccc(-n2ncc3c(=O)n(CC(=O)N4CCCCCC4)cnc32)cc1`, the z-score was -0.166.
`N#Cc1ccc(NC(=S)Nc2ccccc2)cc1` yielded a z-score of -0.118.
Then `C[N+]1(CC(=O)OCCCc2ccccc2)CCCC1`, with 0.0174; and `Cc1cc(OCC(O)CN(CCO)CCO)ccc1Cl` (centres undefined), with 0.338; and `O=C(CCCn1c(SCC(=O)NC2CCCCC2)nc2ccccc2c1=O)NCC1CCCO1` (centres undefined), with -0.0674.
For the compound `CC(C)COP(=O)(OCC(C)C)C(Nc1ccccc1)c1ccc2c(c1)OCO2` (centres undefined), the z-score was -0.389.
As for `NC(=O)C1CCN(CC(=O)Nc2ccccc2Sc2ccccc2)CC1`, the z-score was -0.504.
For `COc1ccc(-n2c3c(c(=O)[nH]c2=O)C(C(F)(F)F)(C(F)(F)F)N=C(CC(C)C)N3)cc1`, the z-score is -0.198.
Next, `COc1ccc(S(=O)(=O)N2CCOCC2)cc1Cl`: -0.331.
Next, `COCCN1Cc2cccc(C(=O)N3CCN(c4ccccc4)CC3)c2C1=O`: 0.197; `CCOC(=O)c1c(NC(=O)CSc2ncnc3ccccc23)sc(C(C)=O)c1C`: -0.222.
On to `CCN1CCCC1CNC(=O)C1CCN(Cc2nc(-c3cccc(Br)c3)oc2C)CC1` (centres undefined), for which the z-score is active: 4.3.
`CCSc1nnc2c(n1)OC1(CCCC1)Nc1ccccc1-2` showed a z-score of -0.448.
Then `CC(C)N1C(=O)/C(=C\c2nc3ccccc3c(=O)n2-c2ccccc2)c2ccccc21`, with 0.0165; and `CCOC(=O)c1cc(C)sc1NC(=O)C1CCC1`, with -2.58.
`COc1ccc(N2CCN(C(=O)CC34CC5CC(CC(C5)C3)C4)CC2)c([N+](=O)[O-])c1` came in with a z-score of 0.0546.
Take `Nc1ccc2oc3ncccc3c(=O)c2c1`: the z-score was -0.0378.
As to `CCC(=O)Nc1cccc(NC(=O)CSc2nnc(-c3ccc(NS(C)(=O)=O)cc3)n2CC)c1`, the z-score was -0.166.
As to `Cc1ccc(SC(C)C(=O)NCC(C)C)cc1` (centres undefined), the z-score was -0.00745.
Consider `O=C(CSc1nccn1-c1cccc(Cl)c1)Nc1ccc2c(c1)OCCO2`, for which the z-score is -0.509.
`Cn1c(CNC(=O)c2ccccc2F)nnc1SCc1ccc(F)cc1` returned a z-score of 0.297.
Compound `CCn1c(CC(=O)Nc2cccc(OC)c2)nnc1SCC(=O)Nc1nccs1` had a z-score of -0.0961.
Turning to `COc1cc(C(C)=O)ccc1OC(=O)C(C)N1C(=O)c2ccccc2C1=O` (centres undefined), the z-score is -0.555.
`COc1ccc(-c2csc(N(CCc3ccc(OC)c(OC)c3)C(=O)COc3ccccc3)n2)cc1`: the z-score was -0.0301.
Next, `O=C(c1cc([N+](=O)[O-])ccc1Cl)N1CCN(c2ccc([N+](=O)[O-])cc2)CC1`: -0.595.
